In all, about 310,000 compounds went through this assay and about 14,000 (4.5%) showed an effect of 50% or more. The effect is printed as a negative number. This is one part of the list.
Each compound was assayed against human ether-à-go-go-related gene (hERG) potassium channel (human, UniProt Q12809) (assay: primary screen, population patch clamp on CHO cells stably expressing hERG).
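Note: peak tail current of the secondary pulse compared with the same well before compound.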

human ether-à-go-go-related gene (hERG) potassium channel, sequence (Q12809 whole entry, looked up): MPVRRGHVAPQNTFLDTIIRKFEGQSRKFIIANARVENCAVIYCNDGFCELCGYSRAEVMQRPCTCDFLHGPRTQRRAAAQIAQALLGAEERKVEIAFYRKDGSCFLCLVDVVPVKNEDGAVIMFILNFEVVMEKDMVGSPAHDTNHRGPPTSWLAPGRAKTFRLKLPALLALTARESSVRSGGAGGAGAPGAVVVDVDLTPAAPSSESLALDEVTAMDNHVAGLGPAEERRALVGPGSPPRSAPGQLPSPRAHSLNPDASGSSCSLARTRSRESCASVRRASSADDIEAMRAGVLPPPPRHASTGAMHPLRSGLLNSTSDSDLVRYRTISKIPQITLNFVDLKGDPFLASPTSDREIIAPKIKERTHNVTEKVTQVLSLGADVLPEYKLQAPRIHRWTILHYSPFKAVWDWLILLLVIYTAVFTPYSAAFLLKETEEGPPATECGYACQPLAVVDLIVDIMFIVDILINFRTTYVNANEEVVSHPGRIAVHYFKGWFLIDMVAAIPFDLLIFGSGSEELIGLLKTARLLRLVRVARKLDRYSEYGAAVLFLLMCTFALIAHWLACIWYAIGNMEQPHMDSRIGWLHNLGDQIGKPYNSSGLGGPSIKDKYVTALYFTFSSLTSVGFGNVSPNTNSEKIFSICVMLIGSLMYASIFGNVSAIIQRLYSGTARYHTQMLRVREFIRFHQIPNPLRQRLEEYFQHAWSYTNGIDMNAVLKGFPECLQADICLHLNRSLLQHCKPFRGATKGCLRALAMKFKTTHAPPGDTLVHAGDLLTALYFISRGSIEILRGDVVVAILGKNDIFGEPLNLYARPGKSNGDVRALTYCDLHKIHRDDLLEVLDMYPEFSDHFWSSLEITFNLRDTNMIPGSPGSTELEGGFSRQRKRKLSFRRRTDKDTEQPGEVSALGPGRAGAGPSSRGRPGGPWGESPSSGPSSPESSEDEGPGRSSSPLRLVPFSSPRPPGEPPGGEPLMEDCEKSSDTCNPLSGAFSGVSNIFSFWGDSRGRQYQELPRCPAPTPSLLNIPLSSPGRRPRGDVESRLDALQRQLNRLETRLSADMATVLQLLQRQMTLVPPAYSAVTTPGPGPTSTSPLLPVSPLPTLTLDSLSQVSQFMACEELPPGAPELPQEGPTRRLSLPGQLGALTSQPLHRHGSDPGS

Compound	hERG current change (%, negative = inhibition) at 10uM
Cn1c(-c2ccccc2)c[n+]2c1CCCCC2.[Br-]	-0.399%
CCCCn1c(CCNC(=O)c2cccs2)nc2ccccc21	-33.2%
CC(=O)NC1=NN(C(C)=O)C2(S1)C(=O)N(C(C)C)c1ccc(C)cc12 (stereo not drawn)	3.66%
Cc1ccc(C(=O)N2C3=C(CCCC3)C(=O)NC23CCCCC3)cc1	33%
CN(CCCC(=O)N1CCCC(C(N)=O)C1)S(=O)(=O)c1ccc(F)cc1 (stereo not drawn)	-0.711%
CN1Cc2c(N3CCOCC3)nc3sc(C(=O)c4ccccc4)c(N)c3c2CC1(C)C	11.2%
Cc1ccsc1C(=O)C1CCCN(Cc2cnc(N)nc2)C1 (stereo not drawn)	-4.85%
CC(=O)c1ccc(S(=O)(=O)N2CCN(C(=O)CSc3ccc(C)c(C)c3)CC2)cc1	-16.1%
CCCNC(=O)CSc1nc2ccc(OCC)cc2s1	7.92%
CCOC(=O)c1cc(-c2ccccc2)n(CC(=O)Nc2ccc(OC)cc2)c1C	6.19%
CCN1C(C(=O)Nc2cc(C)on2)=C(O)c2ccccc2S1(=O)=O	24.7%
Cc1ccc(CC2CC(=O)N(c3cc(Cl)ccn3)C2=O)cc1 (stereo not drawn)	-0.469%
COc1cccc(OC)c1C(=O)N1CCN(Cc2cccnc2)CC1	27.2%
Cc1ccc(NC(=O)CN(C)C(=O)c2cc(S(=O)(=O)N(C)C)ccc2N2CCCC2)cc1	3.15%
C/C(=N\NC(=O)COc1cccc(Cl)c1)c1ccc2c(c1)OCCO2	6.72%
COc1ccc(-c2nc3ccccc3nc2-c2ccccc2)cc1OC	-4.02%
CCOC(=O)c1nc(C)n(-c2ccc([N+](=O)[O-])cc2)n1	-17.5%
O=C(OCc1cccc(Cl)c1)c1cc(S(=O)(=O)N2CCCCC2)ccc1N1CCOCC1	1.09%
COc1cccc(CNc2nc(C(F)(F)F)nc3ccccc23)c1	0.0262%

Compound	hERG current change (%, negative = inhibition) at 10uM
CCc1ccccc1NC(=O)C1CCN(S(=O)(=O)c2ccc3c(c2)N(C(C)=O)CCO3)CC1	17.2%
C1CCc2c(nnc3c2-c2nonc2CC3)C1	0.993%
O=[N+]([O-])c1cccc(CCl)c1	-0.214%
CN(CCOc1ccc(Br)cc1)CC(O)c1ccccc1.O=C(O)C(=O)O (stereo not drawn)	-63.1%
CCn1c(SCC(=O)Nc2ccc(C(=O)OC)cc2)nnc1-c1cccs1	-10.7%
O=C(O)c1ccccc1-c1ccccc1C(=O)NCc1cccnc1	20.2%
CCn1c(=O)c(C(=O)CN(C)Cc2ccc(F)cc2)c(N)n(Cc2ccccc2)c1=O	-71%
O=C(Cn1c(=O)c2c(ncn2C2CCCC2)n(Cc2ccccc2)c1=O)N1CCc2ccccc21	16.8%
CCN(CC(=O)Nc1cc(Cl)ccc1OC)CC(=O)NC1CCS(=O)(=O)C1.O=C(O)C(=O)O (stereo not drawn)	-3.74%
Cc1cccc(C2C3=C(CCCC3=O)N=C3c4ccccc4C(=O)C32)c1 (stereo not drawn)	-0.327%
CCc1ccc(NC(=O)COc2ccc3c(c2)OCO3)cc1	-1.69%
COCc1cc(=O)[nH]c(/N=C(\N)Nc2ccc(C)cc2)n1	-17.6%
CC(=O)N1c2ccc(S(=O)(=O)NCCC(=O)Nc3ccccc3C)cc2CC1C (stereo not drawn)	5.38%
CN(C)C1=NCCN1CCc1ccccc1	12%
Nc1nn(-c2ccccc2)nc1C(=O)OCc1ccccc1	14.9%
O=C(CCCn1c(=S)[nH]c2cc3c(cc2c1=O)OCO3)NCc1cccc(Cl)c1	22.4%
Cc1cc(C(F)F)n2nc(C(=O)Nc3sc4c(c3C#N)CCC(C)C4)nc2n1 (stereo not drawn)	-5.85%
COC(=O)c1ccccc1NC(=O)/C=N/O	-31.5%
N#Cc1nc(-c2ccc(OCc3ccc(Cl)cc3)cc2)oc1NCc1cccnc1	19.9%

Compound	hERG current change (%, negative = inhibition) at 10uM
COc1ccc(NC(=S)N2CCNC(=O)C2CC(=O)Nc2cccc(Cl)c2C)cc1 (stereo not drawn)	-20.2%
Cc1cc(C)n(-c2nc(O)cc(=O)[nH]2)n1	5.04%
COc1cc(CN2CCN(c3cc(C)ccc3C)CC2)cc([N+](=O)[O-])c1O	7.26%
CCOc1ccc(NC(=S)N2CCC(c3ccc(C)cc3)C2)cc1 (stereo not drawn)	-6.63%
CN(CC(=O)Nn1cnnc1)S(=O)(=O)c1cc(Cl)ccc1Cl	4.75%
Cc1nnc(SCc2cccc3ccccc23)n(N)c1=O	3.09%
COc1ccccc1NC(=S)N1CCN(c2ncccn2)CC1	31.9%
CC#CC(=O)N1CCC(CCC(=O)N(C)Cc2ccccc2)CC1	-7.72%
CN(C)c1ccc(C(=O)c2ccc(O)cc2O)cc1	-30.8%
COC(=O)NNC(=O)COc1ccc(Br)c(C)c1	-44.7%
c1ccc(-c2nnc(C3CC(c4ccncc4)=NO3)o2)cc1 (stereo not drawn)	4.02%
O=C(NCc1ccco1)C1CC(c2ccc(F)cc2)=NO1 (stereo not drawn)	8.73%
Cc1ccc2c(c1)N(CCC(=O)N1CCC3(CC1)OCCO3)C(=O)CO2	-16.8%
COc1ccc(NC(=O)CN(C)C(=O)c2cc(-c3ccc(OC)cc3)nc3ccccc23)cc1	-2.52%
COc1ccc(OC)c(NC(=O)CCCN2C(=S)NC(C)(C)CC2C)c1 (stereo not drawn)	0.663%
CCc1cc(=O)[nH]c(SCC(=O)NCc2ccc3c(c2)OCO3)n1	5.02%
O=C(NCCc1ccccc1)C(=O)c1cn(CC(=O)N2CCCC2)c2ccccc12	10.6%
CCN(CC(=O)Nc1ccccc1C(F)(F)F)C(=O)Cc1ccccc1	7.39%
CCOCC(=O)Nc1cc([N+](=O)[O-])ccc1C	-2.36%
